# Measurements taken from the supplement of paper PMC4166925.
# ± gives the standard deviation of the averaged measurements. Whole data set: some 33,000 sequences, median “E-score (dimensionless, -0.5 to 0.5)” near -0.049, cut for the highest 2% near 0.37. Some of the results follow.
# System: T1, PmTbr T-box DNA-binding domain (GST fusion)
# T1 sequence: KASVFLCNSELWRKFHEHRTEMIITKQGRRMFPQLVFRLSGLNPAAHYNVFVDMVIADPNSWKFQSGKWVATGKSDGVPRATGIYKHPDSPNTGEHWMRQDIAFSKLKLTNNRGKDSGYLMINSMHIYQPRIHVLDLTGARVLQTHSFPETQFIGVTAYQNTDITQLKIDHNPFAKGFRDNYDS
# Test: PBM E-score of 8-mer (E-score (dimensionless, -0.5 to 0.5)); Tbr is Tbrain of the sea star Patiria miniata (Pm) or the sea urchin Strongylocentrotus purpuratus (Sp); higher = stronger binding preference; most listed sequences are background and not binding sites
# Settings: the construct has about 5 more residues each side
# How it was run: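 Using the Universal PBM Analysis Suite, every ungapped 8-mer received an enrichment E-score averaged over duplicate arrays. Probe intensities came from double-stranded Universal Agilent oligonucleotide arrays incubated with 200 nM GST-fused Tbr T-box DNA-binding domain in PBS (pH 7.5). That protein was expressed in BL21 E. coli at 20 °C and purified by glutathione affinity chromatography.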
row,Sequence,PBM E-score of 8-mer
1,AACGTGTG,0.3941 ± 0.0015
2,AAGAGCCT,-0.306 ± 0.023
3,CGCAAAAC,0.0965 ± 0.0024
4,ACTGCACT,-0.165 ± 0.03
5,CACGAATG,-0.00445 ± 0.0028
6,CTTGAGAC,0.0337 ± 0.048
7,CATGACCG,-0.206 ± 0.012
8,ACGCCTTC,0.3639 ± 0.0026
9,AGACCTCT,-0.301 ± 0.015
10,ATAGGTAA,0.0508 ± 0.015
11,AGTTAATA,0.0455 ± 0.017
12,AGACAGCT,0.113 ± 0.035
13,CTCACCGC,0.055 ± 0.076
14,GCACCCGC,0.333 ± 0.012
15,CGAATCGC,0.218 ± 0.0082
16,AGGGTGAT,0.197 ± 0.018
17,ATCCTGCG,-0.157 ± 0.084
18,TCCTTCCA,-0.232 ± 0.018
19,CATTATTC,-0.213 ± 0.0042
20,GGGAAGAA,-0.156 ± 0.046
21,ATAGGTCG,-0.112 ± 0.028
22,ACACAAGG,0.195 ± 0.041
23,ACTGCACA,0.142 ± 0.028
24,CATCGTCG,0.2049 ± 0.00059
25,ATGCCCAT,-0.193 ± 0.0043

row,Sequence,PBM E-score of 8-mer
1,CGAAGACC,-0.0591 ± 0.03
2,CTTTGAGC,-0.133 ± 0.048
3,CTCTTAAG,-0.267 ± 0.032
4,AGTCGCCA,0.242 ± 0.01
5,ATCCCCGG,-0.114 ± 0.02
6,TCTCGTAA,-0.0267 ± 0.083
7,GTATTCAC,0.268 ± 0.06
8,CCCAGTCG,-0.102 ± 0.12
9,AAACGTAC,-0.18 ± 0.07
10,ATGCTACG,0.0591 ± 0.015
11,ATACGTAG,-0.345 ± 0.042
12,GTTCTGCA,-0.122 ± 0.1
13,AATTTCTG,-0.149 ± 0.053
14,GAGCATAA,-0.0887 ± 0.028
15,AAATTTAA,-0.159 ± 0.071
16,CCGTGCTA,0.263 ± 0.0013
17,ACTCAGCC,-0.1209 ± 0.0012
18,ACGAGCTG,0.114 ± 0.017
19,CCATAGGC,-0.139 ± 0.064
20,CAAGCGCA,0.048 ± 0.03
21,CTTCTGAC,0.141 ± 0.03
22,ATCACAGG,0.195 ± 0.099
23,ACATGAAC,0.0297 ± 0.026
24,TGCTCCAA,-0.162 ± 0.04
25,CCACCAAC,0.00885 ± 0.0094

row,Sequence,PBM E-score of 8-mer
1,TAAAGACA,-0.128 ± 0.051
2,GAATGCTC,-0.12 ± 0.075
3,CGCCTCTC,0.187 ± 0.025
4,CAGGCTGA,-0.119 ± 0.024
5,CTCATAAC,-0.0598 ± 0.022
6,ATGACAAT,0.165 ± 0.021
7,ACCGGCGT,0.0857 ± 0.039
8,ATGAATGC,-0.116 ± 0.031
9,TCGCTACA,-0.02702 ± 9.2e-05
10,TACGGTGA,0.106 ± 0.093
11,AGCGGGCC,-0.226 ± 0.039
12,CGCCCTCC,-0.0753 ± 0.0031
13,GCCAGGGC,-0.114 ± 0.0025
14,CTCTGCCC,-0.112 ± 0.049
15,AAGGACTA,-0.2289 ± 0.0013
16,CTCAGCAG,-0.0259 ± 0.049
17,CGTTCACA,0.406 ± 0.012
18,CCGAACAA,-0.122 ± 0.0046
19,AAGGTTGA,-0.15 ± 0.024
20,CACCAGGA,0.182 ± 0.057
21,AATCTAGT,-0.0691 ± 0.096
22,AGGGGGAA,-0.14 ± 0.053
23,ACTTCTTC,0.0862 ± 0.021
24,TCAGAAAA,-0.0376 ± 0.023
25,AAGGTCAC,0.165 ± 0.055

row,Sequence,PBM E-score of 8-mer
1,CCTGCTGA,-0.126 ± 0.051
2,CCCCTCTA,-0.143 ± 0.088
3,AACTACAG,0.0297 ± 0.049
4,GAGCAAGC,-0.0839 ± 0.043
5,CGTATTAC,-0.104 ± 0.011
6,GACCCTAA,-0.198 ± 0.066
7,GAGTTTAA,0.0862 ± 0.037
8,CGCTTGAC,-0.0239 ± 0.002
9,CTCTGAAC,-0.238 ± 0.011
10,CGGATGAC,-0.104 ± 0.018
11,ATTCAGGG,-0.0909 ± 0.06
12,CGCATTGA,0.0757 ± 0.006
13,GGTGAAGA,0.176 ± 0.066
14,ACTAGCGG,-0.00732 ± 0.0077
15,ATCGGACG,-0.156 ± 0.042
16,CAAGGAAA,-0.179 ± 0.088
17,TAGAGTCA,-0.246 ± 0.062
18,ATGCTCCC,0.0205 ± 0.032
19,GTTTTCCA,-0.278 ± 0.036
20,TATGTTAA,0.0273 ± 0.076
21,GGCCCTGA,-0.1469 ± 0.0011
22,CGCGACTA,0.233 ± 0.079
23,GACGAGAC,0.0185 ± 0.0037
24,CGCTCTAA,-0.00311 ± 0.024
25,AAAAGACT,-0.205 ± 0.034

row,Sequence,PBM E-score of 8-mer
1,AATGTCAT,-0.164 ± 0.033
2,ATACAGCA,-0.0736 ± 0.0022
3,TACTTGGA,-0.254 ± 0.021
4,CAGCCGGG,-0.166 ± 0.017
5,GTGACGGA,0.272 ± 0.036
6,CGCAGGAC,-0.117 ± 0.0056
7,CATATATG,0.0458 ± 0.1
8,TAGGCTGA,0.144 ± 0.026
9,TAGGGCCA,-0.155 ± 0.032
10,AAAAGTTG,0.147 ± 0.072
11,ACCGTCAG,0.0687 ± 0.014
12,CAAACTCA,0.0123 ± 0.00047
13,CGCCAATC,0.151 ± 0.012
14,CCCACTCG,0.0373 ± 0.049
15,ATTAGTTC,-0.177 ± 0.021
16,ACCTTTCC,-0.121 ± 0.039
17,CGAGGGGC,-0.073 ± 0.057
18,ACCTTTTG,0.236 ± 0.0028
19,CTCCAGTC,-0.149 ± 0.012
20,AGTGAGGG,-0.0175 ± 0.1
21,CGGAAACG,0.0389 ± 0.027
22,ACGGCATA,-0.14 ± 0.027
23,ATCCACTC,-0.224 ± 0.0054
24,TCGAGCCA,-0.0622 ± 0.038
25,AACAGTTG,0.15 ± 0.02

row,Sequence,PBM E-score of 8-mer
1,ATTAGCGC,0.331 ± 0.024
2,ACCCGCCT,0.0715 ± 0.059
3,AAGGACTC,-0.0491 ± 0.069
4,AAACGTAG,-0.076 ± 0.04
5,GCAATTAA,0.0317 ± 0.082
6,AAGGAGAG,-0.168 ± 0.053
7,CAAACATA,-0.176 ± 0.036
8,ATGTTCGG,-0.0272 ± 0.05
9,ACGTGATC,0.0646 ± 0.027
10,CTATACTA,-0.188 ± 0.041
11,AGACCAAA,0.0858 ± 0.083
12,CTTCGTAC,0.0547 ± 0.098
13,ACCTAACT,0.1322 ± 0.00088
14,GATGTGGA,-0.112 ± 0.027
15,GAATCCGA,-0.155 ± 0.027
16,AGGTGAAC,0.174 ± 0.0058
17,CTACAAAC,-0.00661 ± 0.026
18,GACCCCCA,-0.137 ± 0.043
19,CCTCAACG,0.0167 ± 0.051
20,ATCATTCC,-0.134 ± 0.0078
21,AAGCACAA,-0.166 ± 0.022
22,CAGCATTA,-0.0723 ± 0.024
23,CTAGCCAG,-0.185 ± 0.027
24,AATCTCGC,0.341 ± 0.015
25,AACTTTTG,-0.0457 ± 0.051

row,Sequence,PBM E-score of 8-mer
1,GGCTATAC,-0.163 ± 0.047
2,AAAGCTAA,-0.116 ± 0.075
3,GGACCTGA,-0.229 ± 0.046
4,ATGCAGGG,-0.172 ± 0.01
5,AGGTCCGC,0.0766 ± 0.032
6,CGATCGCA,0.226 ± 0.029
7,CGCTGGGC,-0.127 ± 0.1
8,ACAAATAA,-0.049 ± 0.059
9,CCACTCGC,0.13 ± 0.0051
10,CAGTCGGG,-0.0595 ± 0.012
11,TACGCACA,-0.0799 ± 0.0095
12,ATCCGTTA,-0.153 ± 0.087
13,AGTAATCA,-0.0163 ± 0.02
14,AGGATGCA,-0.304 ± 0.02
15,ACGTCCTA,-0.1436 ± 0.00023
16,GAACGCAC,-0.0225 ± 0.023
17,CAAAGACA,-0.0313 ± 0.013
18,TATTCGGA,-0.32 ± 0.033
19,CGACCGAC,0.0275 ± 0.11
20,TGGGCGAA,-0.161 ± 0.15
21,GAACCGGA,-0.188 ± 0.048
22,ATATCCGG,-0.353 ± 0.02
